Reference: PubChem BioAssay AID2147 (National Center for Advancing Translational Sciences (NCATS), 2009)
Out of some 230,000 compounds screened, about 3,600 (1.6%) were called active. Inconclusive results, whose numbers are uncertain, are shown with a selection of clear calls. The call rests on the fitted dose curve; in most records, active means well fitted inhibition curve with a large enough effect (not every such curve was filed as active); inconclusive means small, poorly fitted or top-dose-only effect, or another doubt; inactive means no such curve, though single readings can be large or run the other way. Where the call is inconclusive, the potency comes from a doubtful curve fit.

The molecules below were run against Lysine-specific demethylase 4E (Homo sapiens) (UniProt B2RXH2) (assay: qHTS Assay for Inhibitors of Human Jumonji Domain Containing 2E (JMJD2E)). Details: JMJD2E catalytic domain, FDH-coupled NADH fluorescence (FDH is formaldehyde dehydrogenase); series mostly up to 57.1 µM.
Further: nearly all actives have a fitted effect of over 50% in size.
Potency means the concentration at half of the fitted maximal effect; tags describe the fitted curve by direction and shape.
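Wherever activity change, negative = inhibition is given: 0% = wells with enzyme and -100% = buffer wells without enzyme.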

Sequence of UniProt B2RXH2 (B2RXH2 whole entry, looked up, the tested form may be a part): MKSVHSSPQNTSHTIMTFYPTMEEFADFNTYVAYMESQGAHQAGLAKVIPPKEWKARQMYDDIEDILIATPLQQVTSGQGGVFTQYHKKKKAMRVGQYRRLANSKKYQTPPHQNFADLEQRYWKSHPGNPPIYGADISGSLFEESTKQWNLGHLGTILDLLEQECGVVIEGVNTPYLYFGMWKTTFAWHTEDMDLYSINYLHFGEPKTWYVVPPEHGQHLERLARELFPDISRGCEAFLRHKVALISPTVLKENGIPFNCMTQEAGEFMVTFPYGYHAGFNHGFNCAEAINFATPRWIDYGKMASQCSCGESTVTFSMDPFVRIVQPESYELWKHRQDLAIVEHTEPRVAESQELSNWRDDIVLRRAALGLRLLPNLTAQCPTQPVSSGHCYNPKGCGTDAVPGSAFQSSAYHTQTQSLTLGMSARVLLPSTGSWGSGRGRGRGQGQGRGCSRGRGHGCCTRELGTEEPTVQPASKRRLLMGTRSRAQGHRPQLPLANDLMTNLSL

| Compound | Potency | activity change, negative = inhibition |
| --- | --- | --- |
| CC1(C)SC(=Nc2ccccc2)N(S(=O)(=O)c2ccccc2)C1=O | inactive | – |
| CC(=O)Nc1ccc(S(=O)(=O)N2CCN(c3nc(NC4CCCC4)c4ccccc4n3)CC2)cc1 | inconclusive: 31.6 µM [inhibitor, partial curve] | – |
| CCCCN(Cc1cc2ccccc2[nH]c1=O)C(=O)c1ccccn1 | inconclusive: 31.6 µM [inhibitor, single point] | – |
| O=S(=O)(c1cccc2nsnc12)N1CCN(c2ccccc2F)CC1 | inactive | – |
| O=C(O)C1=C[C@H](c2csc3ccccc23)C[C@H](OCc2ccc(CO)cc2)O1 | inconclusive: 39.8 µM [inhibitor, single point] | – |
| CC(C(=O)NC1CCCc2ccccc21)N1CCN(c2ccc(F)cc2)CC1 (centres undefined) | inactive | – |
| COc1ccc(-n2ncc3c(NCc4cccs4)ncnc32)cc1 | inconclusive: 31.6 µM [inhibitor, partial curve] | – |
| Cc1nc(N2CCC(C)CC2)c2c(C)c(C(=O)Nc3cccc(C(F)(F)F)c3)sc2n1 | inconclusive: 31.6 µM [inhibitor, single point] | – |
| O=C(O)c1ccc(-c2ccc(/C=C3\NC(=O)N(Cc4ccc(Cl)cc4)C3=O)o2)cc1Cl | inconclusive: 14.1 µM [inhibitor, partial curve] | – |
| COc1cc(NS(=O)(=O)c2cccc3nsnc23)cc(OC)c1 | inactive | – |
| COc1ccc(CCNC(=O)Cc2ccc(OCc3ccccc3)c(OC)c2[N+](=O)[O-])cc1OCc1ccccc1 | inactive | – |
| O=S(=O)(Nc1cccc(S(=O)(=O)N2CCCCCC2)c1)c1ccccc1 | inactive | – |
| O=C(CSc1nc(-c2ccco2)cc(C(F)(F)F)n1)Nc1ccc(C(=O)N2CCCCC2)cc1 | inconclusive: 39.8 µM [inhibitor, single point] | – |
| CCn1ncc(/C=N\NC(=O)c2ccc3c(c2)c(C)c(C)n3Cc2ccccc2)c1C | inconclusive: 31.6 µM [inhibitor, partial curve] | – |
| Cc1ccc(/C=N/NC(=O)CSc2nnc(-c3ccc(Cl)cc3)n2-c2ccc(Cl)cc2)o1 | inactive | – |
| Cc1ccc(-c2ccc(=O)n(CC(=O)Nc3cccc(C(=O)N4CCN(C)CC4)c3)n2)cc1 | inconclusive: 31.6 µM [inhibitor, single point] | – |
| COCCCN=C1NN=C(c2cc(C)n(Cc3ccccc3Cl)c2C)CS1 | inconclusive: 31.6 µM [inhibitor, single point] | – |
| CC1(CC(=O)N/N=C/c2cc(Br)c(O)cc2O)OCCO1 | active: 25.1 µM | – |
| COc1ccccc1Nc1ncc(C(=O)N2CCC(C(N)=O)CC2)c2ccccc12 | inactive | – |
| CCCCc1nc2c(c3c1C[C@H](C)OC3)CN(S(=O)(=O)c1c(C)noc1C)CC2 | – | inactive: -23.3% [at 11.4 µM] |
| CCCc1nc2ccccc2c(C(=O)OCc2nnc(-c3cc(OC)c(OC)c(OC)c3)o2)c1CC | inconclusive: 39.8 µM [inhibitor, single point] | – |
| c1ccc(-c2csc(-c3cccnc3)n2)cc1 | inconclusive: 39.8 µM [inhibitor, single point] | – |

| Compound | Potency | activity change, negative = inhibition |
| --- | --- | --- |
| CC(C)CC(NC(=O)C1CCC(C)CC1)C(=O)N1CCN(c2ccccn2)CC1 (centres undefined) | inconclusive: 28.2 µM [inhibitor, single point] | – |
| O=C(Nc1nc2ccccc2s1)c1cccc(S(=O)(=O)N2CCc3ccccc32)c1 | inconclusive: 25.1 µM [inhibitor, partial curve] | – |
| CCOC(=O)c1ccc(N=c2scc(C)n2CC)cc1 | inactive | – |
| CN(C)c1ccc(C(=O)OCc2ccc(Br)cc2)cc1 | inconclusive: 35.5 µM [inhibitor, single point] | – |
| NC(=S)N/N=C/c1ccc(-c2cc(Cl)ccc2Cl)o1 | inconclusive: 39.8 µM [inhibitor, single point] | – |
| COc1cc(/C=C/C(=O)NCc2ccccn2)cc(OC)c1OC | inconclusive: 31.6 µM [inhibitor, partial curve] | – |
| CCOC(=O)c1sc(Nc2nc3c(OC)cccc3s2)nc1C | inconclusive: 23.8 µM [inhibitor, partial curve] | – |
| O=C(Nc1ccccc1C(=O)NC1CCCCC1)c1ccco1 | inconclusive: 35.5 µM [inhibitor, single point] | – |
| CCCCC(=O)Nc1cc2nn(-c3ccc(OC)cc3)nc2cc1C | inconclusive: 28.2 µM [inhibitor, partial curve] | – |
| Cc1ccc(-c2nc(NCc3ccco3)c3ccccc3n2)cc1 | inactive | – |
| COC(=O)c1c(C)n(-c2ccccc2)c2ccc(O)cc12 | inconclusive: 39.8 µM [inhibitor, single point] | – |
| O=C(Nc1cccn(Cc2c(Cl)cccc2Cl)c1=O)c1ccc(Cl)cc1Cl | inconclusive: 35.5 µM [inhibitor, single point] | – |
| O=C(NCc1ccco1)C1CC(=O)N(CCc2ccccc2)C1 (centres undefined) | inconclusive: 39.8 µM [inhibitor, single point] | – |
| COC(=O)Cc1c(C)nc2nc(-c3ccc(Cl)cc3)[nH]n2c1=O | inconclusive: 28.2 µM [inhibitor, single point] | – |
| COc1ccc2nc(NNC(=O)c3cc(=O)c4ccccc4o3)sc2c1 | active: 31.6 µM | – |
| Cc1cccc[n+]1C1C(c2ccccc2)C(C#N)=C(C(=C=[N-])C#N)NC1(O)C1CC1 (centres undefined) | inconclusive: 39.8 µM [inhibitor, single point] | – |
| COc1ccc2c(CC(=O)NCc3cccs3)coc2c1 | inconclusive: 35.5 µM [inhibitor, single point] | – |
| CC(C)CNC(=O)CSc1nnc2ccccn12 | inconclusive: 28.2 µM [inhibitor, partial curve] | – |
| CCN(CC)c1ccc(S(=O)(=O)N2CCOCC2)cc1NS(C)(=O)=O | inconclusive: 1.12 µM [inhibitor, full curve] | – |
| CN1CCSc2ccc(C(=O)Nc3ccc(Cl)cc3)cc21 | inconclusive: 28.2 µM [inhibitor, partial curve] | – |
| CCCCNC(=O)CN1CCC2(O)CCCCC2C1c1ccccc1OC (centres undefined) | inactive | – |
| C=CCn1c(=O)c2c(nc(-c3ccc(S(=O)(=O)O)cc3)n2C)n(C)c1=O | inconclusive: 31.6 µM [inhibitor, partial curve] | – |
